Test results: publication PMC9352240, “Selective Detection of Misfolded Tau From Postmortem Alzheimer’s Disease Brains” (Frontiers in Aging Neuroscience, 2022)

Columns and labels:
[1] = target: the molecule itself; experiment: thioflavin T fluorescence aggregation kinetics; self-aggregation of recombinant tau alone; 30 uM tau, 60 ug/ml heparin, 10 uM ThT, 20 mM Tris pH 7.4, 37°C; t1/2 = time to half maximum ThT intensity
[2] = target: misfolded tau seeds from postmortem Alzheimer's disease brain homogenates (human (endogenous in postmortem brain)); experiment: cell-based or functional assay
[3] = target: the molecule itself; experiment: transmission electron microscopy of fibrils (negative stain); self-assembly into fibrils; 30 uM tau in 20 mM Tris pH 7.4 with 0.06 mg/ml heparin, 37°C, 10-12 days, uranyl acetate stain

- RT-QuIC (ThT fluorescence): t1/2 of seeded aggregation of 12 uM substrate with AD brain homogenate [2]: 22.3 h
B1: recombinant full-length wild-type human tau isoform 1N3R (natural protein)
chain: not shown
notes: source: E. coli BL21-DE3, purified (boiling at 90°C, Ni-NTA, size exclusion Superdex75 and Superdex200); not shown: His6, C-terminal, kept
- t1/2 of self-aggregation (ThT fluorescence) [1]: 4.3 h

B2: 4RCF tau (four microtubule-binding repeats, cysteine-free; 2N4R […] with C291S and C322S) (domain or fragment)
chain: not shown
notes: human tau (MAPT), the four repeat segments R1-R4, […]; numbers count on: the 2N4R isoform; Cloned with NdeI and XhoI into the same vector as the isoforms; also called truncation mutant 4RCF; tau fragment 4RCF; source: E. coli BL21-DE3, purified (Ni-NTA, size exclusion Superdex75 and Superdex200); not shown: His6, C-terminal, kept
- binding result [3]: binds

- RT-QuIC (ThT fluorescence): t1/2 of seeded aggregation of 12 uM substrate with AD brain homogenate [2]: 23.8 h
B3: recombinant full-length wild-type human tau isoform 2N3R (natural protein)
chain: not shown

Each block holds one binder with its values, some of them ahead of it.
